These results are taken from paper PMC10668032.

The list shows a part of the results. At the low end of the ranking, values are background and their order means little.

For the assay, the target named is SIX1 homeodomain (reference allele) (UniProt Q15475). Put plainly: universal protein binding microarray. The note with it: Universal all-10-mer PBM (8x60K, AMADID 030236), 300 nM GST-tagged protein, Alexa Fluor 488 anti-GST; buffer, salt, pH and temperature not stated; high values mean tight binding; most listed sequences are background and not binding sites; double strand, one strand shown.
Regarding CTTCTTAA, the binding signal is -0.0167 E-score. The result for CCCCTTTC reads 0.00262 E-score; that for ACTGCATA, 0.0624 E-score; that for TAACTCTA, -0.0912 E-score.

Turning to CGATAATC, the binding signal amounted to 0.128 E-score.

On to TCCAACAA, for which the binding signal is -0.107 E-score.

Take AACGTTTG: the binding signal is -0.22 E-score. Under CTACAAAC stands -0.0882 E-score; under CAATTCGG, -0.177 E-score; under ATACTCGC, 0.34 E-score.

On to GGATTGTA, for which the binding signal was 0.162 E-score. Under TCTCTACA stands 0.0832 E-score; under AAAAGTCC, -0.231 E-score.

In the case of AAAACGTT, the binding signal was -0.236 E-score. CTAGACGC: the binding signal turned out to be 0.126 E-score. Turning to GCTTAGAA, the binding signal is -0.0868 E-score. In the case of CATTACAC, the binding signal was determined as 0.122 E-score.

Take ACGTTCGA: the binding signal was -0.19 E-score. Under CGCAGATA stands 0.29 E-score; under AGTAGAGC, -0.00523 E-score.

Consider ACTTCACA, for which the binding signal was determined as 0.0242 E-score. Under ATCCCGGC stands 0.173 E-score; under AGTGATAC, 0.489 E-score; under ACACAACC, -0.215 E-score. As for CAGAGCTA, the binding signal is -0.127 E-score.

For the sequence GCACAGCA, the binding signal was -0.15 E-score. For the sequence ACGGTACT, the binding signal is 0.082 E-score. The result for CAGTTAGG reads 0.00951 E-score; that for AGGTTGTG, -0.256 E-score.

With ACTTTGTG, the binding signal was -0.122 E-score. The result for CTAAAAGC reads -0.163 E-score. CTTTTCAC: the binding signal was -0.112 E-score.

With GGTATACA, the binding signal stood at 0.384 E-score. Consider CCAACTTC, for which the binding signal is -0.0314 E-score. In the case of GGGTCGGA, the binding signal came to 0.155 E-score. The result for GTACTTGA reads 0.0189 E-score; that for CACCTTGC, 0.0478 E-score. The result for GAGTCTCC reads -0.182 E-score; that for AGCATATC, 0.408 E-score. Under ACTAAAGA stands -0.137 E-score; under GGAGATGA, 0.116 E-score. As to AAGTTCCG, the binding signal is -0.223 E-score. Turning to AGGTAAAC, the binding signal is -0.0937 E-score. Under CAACTAAG stands -0.17 E-score.

GCTTTTAC: the binding signal was -0.144 E-score. The result for CCTCCAGC reads -0.00404 E-score; that for AAGGTATC, 0.472 E-score; that for AGCTCGAT, 0.227 E-score. In the case of ATATTGGG, the binding signal came to 0.219 E-score. Under AGCGCAAC stands -0.121 E-score; under AACTGCGA, -0.204 E-score. The result for AAAAGGAT reads 0.163 E-score; that for ATATGGTC, 0.277 E-score. The result for GCCACGCA reads -0.0518 E-score; that for CAGACTAA, -0.193 E-score.

With CGATACGC, the binding signal came out at 0.434 E-score.

For the sequence GGGCGCCC, the binding signal was determined as 0.0141 E-score.

As to CCTTTGCG, the binding signal was 0.0492 E-score.

With CCTTCGAA, the binding signal was -0.234 E-score.

Turning to CACAGTAA, the binding signal was -0.103 E-score. AGAACCAG: the binding signal amounted to 0.0696 E-score. Under AAACGGAT stands 0.364 E-score; under ACTCGTCT, 0.0382 E-score. With GGCGTTTA, the binding signal is -0.096 E-score. Regarding AACCTGAC, the binding signal was -0.182 E-score.

As to TAAAGACA, the binding signal is -0.211 E-score.

Turning to AGAGCGGC, the binding signal is -0.194 E-score.

In the case of ATGGTAAC, the binding signal came out at 0.14 E-score. The result for ACGCCCAG reads -0.0061 E-score; that for ATTTCCCA, -0.117 E-score. The result for CGTTTAAC reads -0.216 E-score; that for CCGCTAAA, -0.24 E-score; that for TCGATCGA, -0.076 E-score. Under ACCTCGAA stands -0.122 E-score. In the case of CTGAACCC, the binding signal was 0.0238 E-score. With CGTCCTTA, the binding signal is -0.105 E-score.

Regarding ATTACCGC, the binding signal came out at 0.0243 E-score. Under GTGTAATA stands 0.267 E-score; under ATACGATC, 0.388 E-score. Under GCATGCCC stands -0.169 E-score. For the sequence CTGCCAGC, the binding signal is -0.377 E-score. The result for CTCATCCC reads 0.0695 E-score; that for GACCTGTA, -0.0364 E-score.

Take ACGAAAAT: the binding signal was -0.134 E-score. With ACTACCCC, the binding signal amounted to 0.0855 E-score. In the case of ACAAGAGG, the binding signal was -0.0142 E-score. Under ACCCACCG stands -0.102 E-score; under CGTTACGA, -0.0725 E-score. Regarding ATCCGTTC, the binding signal amounted to 0.324 E-score. Regarding TCCGACAA, the binding signal turned out to be 0.0446 E-score. Under TAGCGCCA stands -0.348 E-score. As to AGTCTCAG, the binding signal was -0.125 E-score. The result for ATTAAAAT reads -0.135 E-score. Turning to CCCCTCAG, the binding signal worked out at 0.123 E-score.

On to ATCACGAA, for which the binding signal is 0.172 E-score. The result for TGACCGAA reads -0.203 E-score; that for CAGGGAAC, -0.0798 E-score; that for ATACCACC, 0.403 E-score. Regarding TATCAGCA, the binding signal stood at 0.327 E-score. Turning to ACCCGGCA, the binding signal is -0.108 E-score. Under GACTGGGC stands -0.251 E-score; under GCATCACC, -0.0938 E-score; under CCGTGACG, 0.0287 E-score. With CTACTAGC, the binding signal turned out to be 0.0799 E-score. For the sequence ATAAAGTC, the binding signal was -0.174 E-score.

ATAGGCTG: the binding signal is -0.0133 E-score. Under GGTATAAC stands 0.301 E-score; under GCTTAAGA, -0.0326 E-score; under CTACATCC, -0.0347 E-score. For AACTCAGG, the binding signal is -0.00139 E-score. The result for ATACCGGA reads 0.381 E-score; that for ACCTCTGA, -0.0226 E-score; that for CGGGTACA, 0.107 E-score.

For the sequence CGCTGGCC, the binding signal was -0.217 E-score. Take AGGTTGCA: the binding signal was 0.0213 E-score. Under CGGGTCAG stands -0.0169 E-score; under AAAAATAC, 0.124 E-score; under CTACGCCC, 0.0346 E-score.

With GTCGCAGA, the binding signal is -0.0781 E-score. Under CCCCAAGA stands 0.0705 E-score; under CAGAGGGA, 0.0779 E-score. As for ACTAACGC, the binding signal is -0.115 E-score.

In the case of GATAACCA, the binding signal was 0.213 E-score. In the case of GTAACCTA, the binding signal was 0.0595 E-score.

As to GTCCGTAA, the binding signal was -0.0864 E-score. Consider GGAATGCC, for which the binding signal was -0.125 E-score.

AGAGTGCA: the binding signal was -0.24 E-score.

Turning to AATGCCCG, the binding signal was -0.0207 E-score. For AAGATAAT, the binding signal came out at 0.11 E-score. Under GCGCCGGA stands 0.11 E-score; under AATTAGAT, 0.114 E-score; under ATTCTCCC, 0.114 E-score. For CCTGCACA, the binding signal is -0.183 E-score.

Turning to AACAATTA, the binding signal is -0.175 E-score. Under CTCCATTA stands -0.0529 E-score; under CCCCGGGG, 0.0987 E-score; under GATCTGTA, 0.25 E-score. The result for TAGGGTCA reads -0.0903 E-score.

For ACGGGTTG, the binding signal stood at 0.00325 E-score. Under GGCTCTTA stands -0.0886 E-score. Under ACTCTTAC stands -0.143 E-score; under CGCAGGAG, -0.0766 E-score; under ACACCTCT, 0.239 E-score. The result for CCGATTAA reads 0.0588 E-score; that for GTCGGTCA, -0.167 E-score. Turning to CGCTGACC, the binding signal was 0.0376 E-score.

On to CTCTGTCA, for which the binding signal is -0.209 E-score. Under ATGGGCTG stands -0.0694 E-score. The result for CCCCACAG reads 0.0544 E-score; that for AGGGAATC, 0.0233 E-score; that for AGTGACGC, -0.151 E-score. Under GCCTTTAA stands -0.0709 E-score. Turning to GCACGGAC, the binding signal is -0.0842 E-score. In the case of GAGACCAA, the binding signal was -0.0593 E-score. Under GCATAATA stands 0.187 E-score. Regarding ATATGTCC, the binding signal stood at 0.265 E-score. The result for GCCTACCC reads -0.207 E-score; that for AAGCCCGT, -0.257 E-score. The result for CCGCGAGC reads 0.0212 E-score; that for ACAGCGGC, -0.196 E-score.

For the sequence AATCGTGC, the binding signal is -0.0472 E-score. The result for ACTTCCTG reads -0.192 E-score. Turning to CAACGACC, the binding signal was -0.195 E-score.

AGCTTCCT: the binding signal was -0.151 E-score. Under AAAACTAA stands -0.271 E-score. Regarding ACCGACAA, the binding signal was -0.0625 E-score. For CGGCTTAG, the binding signal was -0.00357 E-score. The result for GAACGGTC reads -0.144 E-score; that for CGCAGTCA, -0.225 E-score; that for TCCCGAAA, 0.0475 E-score. With AGGGTCCA, the binding signal was 0.000675 E-score. Consider CCCCGAGC, for which the binding signal worked out at 0.0493 E-score.
